Assay results from PubChem BioAssay AID485294 (National Center for Advancing Translational Sciences (NCATS), 2010).
Hit rate of the full screen: of about 370,000 compounds, about 150 (0.041%) were called active. Inconclusive means that the source gave no clear call. Such entries were picked first, then a sample of the others. Calls come from the whole dose curve; as a rule, active = well fitted inhibition curve with a large enough effect; inconclusive = small, poorly fitted or top-dose-only effect; inactive = flat fitted curve, though single readings scatter. No potency is given beside an inconclusive call; the fits are too rough.

Each molecule was assayed against Beta-lactamase (Escherichia coli (strain K12)) (UniProt P00811) (assay: qHTS Inhibitors of AmpC Beta-Lactamase (assay with detergent)). Details: AmpC hydrolysis of nitrocefin, absorbance 480 nm, 0.01% Triton; activity change, negative = inhibition: at 114 µM (top of the series).
Method in brief: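 20 mM phosphate pH 7.0 + 0.01% (detergent screen) or 0.0001% Triton X-100; 5.3 nM AmpC reagent; cpd preinc 15 min RT; nitrocefin (800 uM stock) to start; A480 q20 s × 4 min; Activity was normalised to no-enzyme and no-compound control wells.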
Note: nearly all actives have a fitted effect of over 25% in size.
Potency is the fitted concentration of half-maximal effect; tags give direction and shape of the fitted curve.
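Throughout, for activity change, negative = inhibition: 0% = no-compound wells and -100% = no-enzyme wells.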

Sequence of UniProt P00811 (P00811 whole entry, looked up): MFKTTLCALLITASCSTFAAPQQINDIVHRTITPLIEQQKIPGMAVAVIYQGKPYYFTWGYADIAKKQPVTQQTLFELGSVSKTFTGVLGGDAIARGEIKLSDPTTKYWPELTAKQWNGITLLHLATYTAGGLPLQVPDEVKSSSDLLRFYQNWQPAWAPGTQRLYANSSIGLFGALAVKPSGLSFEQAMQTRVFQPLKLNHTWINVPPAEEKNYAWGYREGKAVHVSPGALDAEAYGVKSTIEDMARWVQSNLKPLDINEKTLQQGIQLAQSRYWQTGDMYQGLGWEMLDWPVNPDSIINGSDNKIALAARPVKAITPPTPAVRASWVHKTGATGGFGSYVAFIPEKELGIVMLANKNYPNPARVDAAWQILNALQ

Row | SMILES | Potency | activity change, negative = inhibition
1 | Cc1cc(/C=N/n2cnnc2)c(C)n1-c1cc(Cl)ccc1Cl | inconclusive [inhibitor, partial curve] | 
2 | Cc1cc(C)n(CCc2nc3c4ccccc4nc(N4CCN(c5ccc(F)cc5)CC4)n3n2)n1 |  | inactive: 25%
3 | COc1ccc2c(c1)c1nnc(SCC(=O)Nc3ccccc3F)nc1n2C | inconclusive [inhibitor, full curve, poor fit] | 
4 | CC(C)CC(NC(=O)C1CCC(=O)N1C(=O)OCc1ccccc1)C(=O)NC(Cc1ccccc1)C(N)=O (stereo not drawn) | inconclusive [inhibitor, partial curve, poor fit] | 
5 | Cc1cccc(C(=O)N2CCCC(Nc3ccc(C)c(C)c3)C2)n1 (stereo not drawn) |  | inactive: -2.57%
6 | O=S(=O)(c1ccccc1)c1cnn2c(C(F)(F)F)cc(-c3ccc(F)cc3)nc12 |  | inactive: -4.22%
7 | S=c1[nH]nc(-c2cccnc2)n1/N=C/c1ccc(Br)s1 | inconclusive [inhibitor, full curve] | 
8 | COc1ccc(-c2cc(C(=O)OCC(=O)c3c(N)n(C)c(=O)n(C)c3=O)c3ccccc3n2)cc1 | inconclusive [inhibitor, full curve, poor fit] | 
9 | COc1ccc(C(c2nnnn2Cc2ccc(F)cc2)N2CCN(c3ccc(OC)cc3)CC2)cc1 (stereo not drawn) |  | inactive: -10.5%
10 | Cc1ccc(S(=O)(=O)N(C)CC(=O)Nc2ccc(C)cn2)cc1 | inconclusive [inhibitor, full curve, poor fit] | 
11 | Cc1ccc(NS(=O)(=O)Cc2ccccc2)nc1 |  | inactive: 9.59%
12 | CCCCOCCCNC(=O)N[C@@H](CCSC)C(=O)OC | inconclusive [inhibitor, partial curve, poor fit] | 
13 | Cc1cccc2nc(CSc3nc4[nH]ncc4c(=O)n3-c3cccc(Cl)c3)cc(=O)n12 | inconclusive [inhibitor, full curve, poor fit] | 
14 | Cc1cc(NC(=O)CSc2nnc(NC(=O)C3CC(=O)N(c4ccccc4C)C3)s2)no1 (stereo not drawn) | inconclusive [inhibitor, partial curve, poor fit] | 
15 | Cc1ccc(CNC(=O)c2ccc(CN3CCOCC3)cc2)cc1 | inconclusive [inhibitor, full curve, poor fit] | 
16 | COCCNC(=O)Cn1cnc2c(cnn2-c2ccc(OC)cc2)c1=O | inconclusive [inhibitor, single point] | 
17 | CCN1CCN(C(=O)Cn2ncc3ccsc3c2=O)CC1 | inconclusive [inhibitor, full curve, poor fit] | 
18 | S=c1[nH]nc(-c2cccs2)n1/N=C/c1c(Cl)cccc1Cl | inconclusive [inhibitor, partial curve] | 
